44 sequences from the supplement of paper PMC11417369 can be followed below.

The other results are listed elsewhere or left out.

The assay has as its system PfSIP2 AP2 domain 1 (GST-tagged). Description: gcPBM binding intensity (ln(normalized median fluorescence intensity)); higher = stronger DNA binding. The gist of the method: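 Each value is the highest Masliner-normalised natural-log median intensity across replicate spots of either orientation of a probe. The probes were primer-extended double-stranded 36-bp intergenic genomic sequences on an Agilent 4 × 180k array, alongside negative controls, exposed for 1 h to GST-tagged P. falciparum DNA-binding domains expressed in E. coli. Bound protein was picked up with Alexa488 anti-GST antibody and scanned at 488 nm.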
Consider “ATATTATAATGTTTTTACGAATTCGCAAATTATTAT [GTGCAC_negctrl_site470]”, for which the “gcPBM binding intensity (ln)” value was determined as 6.91.

For “TTTTTTTTTTTTTTTTTTTTTTTTTTATGATATATA [GTGCAC_negctrl_site365]”, the “gcPBM binding intensity (ln)” value was 6.82.

As to “TTAATTATCCATTTTGCACACATTTTAAAACATGAA [CACACA_site189]”, the “gcPBM binding intensity (ln)” value is 7.56.

As to “TATATATTAAAATAATCACACACATCAATTAATGGT [CACACA_site8331]”, the “gcPBM binding intensity (ln)” value turned out to be 7.01.

As to “TAATTTATTACCATGTAATTATTACGAATATAGGAT [CACACA_negctrl_site694]”, the “gcPBM binding intensity (ln)” value amounted to 7.01.

As for “AAAAAATTATTAATTTGTACATAAATAACCAAAAAA [XGTACX_site2488]”, the “gcPBM binding intensity (ln)” value is 6.94.

In the case of “GAAATATAATTTATTACACACATTTTAAAAAAATTC [CACACA_site1087]”, the “gcPBM binding intensity (ln)” value came out at 6.67.

Take “TTCAACGTTTTGGAATGTACAGAAAGGTATCCATCA [XGTACX_site179]”: the “gcPBM binding intensity (ln)” value came out at 6.97.

For “AAAAAAAAAAAAAAAAAAAAAAAAAAAAAATATGTG [GTGCAC_negctrl_site657]”, the “gcPBM binding intensity (ln)” value was 8.81.

Take “TTTATAACATTTAAGAGTACAAAAAAATAAATAAAT [XGTACX_site1264]”: the “gcPBM binding intensity (ln)” value was determined as 7.07.

As for “TAAAAGATAAAATATGCATGTGTAATTTTTTTTTTT [TGCATGCA_site955]”, the “gcPBM binding intensity (ln)” value came to 6.79.

As for “TATTATTTACTTATTGCACACATATAAAATATATTT [CACACA_site9017]”, the “gcPBM binding intensity (ln)” value was determined as 7.33.

As for “AAAAAAATATATAAATGTACATATTGTTTAATTAAT [XGTACX_site3794]”, the “gcPBM binding intensity (ln)” value turned out to be 7.1.

As for “ATGAACTAAACTAATCGTACAATAAGTTTTATTATA [XGTACX_site4891]”, the “gcPBM binding intensity (ln)” value amounted to 6.84.

Turning to “ATCTATCATATTTATGCACACAAAAATAATTAATTC [CACACA_site8837]”, the “gcPBM binding intensity (ln)” value came out at 7.35.

Take “TCACACACTCTCAAAAGTACAAGAAGATTATGAAGA [XGTACX_site4748]”: the “gcPBM binding intensity (ln)” value amounted to 7.

As for “AGCAAAACAAAAAAATTAAAATTAACATATAATCAT [GTGCAC_negctrl_site393]”, the “gcPBM binding intensity (ln)” value was found to be 6.7.

As to “TTTTGAAGCTTTAAAACATATATATATATATATATA [CACACA_negctrl_site184]”, the “gcPBM binding intensity (ln)” value was determined as 9.76.

As to “AATAAGAGGATACATTGTACATAAAAAAAAAAAATA [XGTACX_site1815]”, the “gcPBM binding intensity (ln)” value was 6.71.

With ATGTTCTTATTATTGGTGCAAGAATACACAAGAAAA, the “gcPBM binding intensity (ln)” value was determined as 9.71.

As for “TATTGTTCTTATTTAGTGCATATATAATATAATATA [GTGCAC_site9827]”, the “gcPBM binding intensity (ln)” value was 9.38.

In the case of “AACACATAATAAAATTGTACCCAACATTTCTTTTGA [XGTACX_site8061]”, the “gcPBM binding intensity (ln)” value turned out to be 6.96.

On to “TATGTGAATAAATAAGCACACATAAACACATATATA [CACACA_site9359]”, for which the “gcPBM binding intensity (ln)” value amounted to 7.04.

Regarding “ATAAAAATTTAAAAAGAACACACGAAAGAAGGACTT [CACACA_site3929]”, the “gcPBM binding intensity (ln)” value is 7.04.

With “TATATAAACACGTACACACACATATCTGTATTTATA [CACACA_site5858]”, the “gcPBM binding intensity (ln)” value stood at 7.39.

For the sequence “AATACCTACCAAACATGTACATACGCTTCTCAAATA [XGTACX_site5535]”, the “gcPBM binding intensity (ln)” value came to 7.21.

Turning to “GTGAGCTCAGACTACACACACAAAGAAAAAAATAAA [CACACA_site1553]”, the “gcPBM binding intensity (ln)” value was determined as 6.76.

As for “ATATTTTTAGGTGATTATTATTCGGAGAAGCGAATT [CACACA_negctrl_site1097]”, the “gcPBM binding intensity (ln)” value was found to be 6.68.

As for “AACAAATACAGACACACACACACACCCAAAAAAAAA [CACACA_site515]”, the “gcPBM binding intensity (ln)” value is 7.29.

Take “ATACAACAAAAATAAGCACACACAAATATACATACA [CACACA_site9201]”: the “gcPBM binding intensity (ln)” value stood at 7.15.

In the case of “ATTAAATGTTATATTTGTACATATTATATATATATA [XGTACX_site5095]”, the “gcPBM binding intensity (ln)” value stood at 9.05.

As to “TCCATATTTGTTCACACACACACATATTTATATATA [CACACA_site3570]”, the “gcPBM binding intensity (ln)” value amounted to 7.31.

In the case of “TTTGTTATTTTTTATTGTACTTTTTTTCTTTCATAA [XGTACX_site4302]”, the “gcPBM binding intensity (ln)” value was 7.11.

In the case of “TTCATTTTTTATTATAGTACACATAATATTTGCAGA [XGTACX_site4032]”, the “gcPBM binding intensity (ln)” value was determined as 7.33.

As for “TTTTTTAAATGTATTAAAATTATATATATATATATA [GTGCAC_negctrl_site570]”, the “gcPBM binding intensity (ln)” value turned out to be 9.44.

For “ATACATAAATTTAGAAGTACATAACAAATTTTTAAA [XGTACX_site7448]”, the “gcPBM binding intensity (ln)” value came out at 7.1.

For “AATCAAAACAACAATAGTACATAAAAAAACAAAACA [XGTACX_site4181]”, the “gcPBM binding intensity (ln)” value was 6.99.

Consider “TATAATAATAATTATACATGCATGAATATTTATATG [TGCATGCA_site811]”, for which the “gcPBM binding intensity (ln)” value is 7.01.

As to “AAAAAAAAAAAAAACACACACACAAATACAAATGGT [CACACA_site1721]”, the “gcPBM binding intensity (ln)” value is 7.3.

With “TTTCTTATTTTGGATTGTACGTATATTTTTCATTTT [XGTACX_site224]”, the “gcPBM binding intensity (ln)” value was 7.07.

With “TTACACATGAGAAAATGTACATATAATAAAATATGT [XGTACX_site904]”, the “gcPBM binding intensity (ln)” value was determined as 6.96.

Turning to “TTATATTTCAATCATATTGTCACAAGTCATATTTAT [GTGCAC_negctrl_site366]”, the “gcPBM binding intensity (ln)” value is 6.8.

As to “ATGGACAAGTTAAACGCACACAAATATATACACCCA [CACACA_site8478]”, the “gcPBM binding intensity (ln)” value is 7.14.

As for “AATAAAAAAAATAGCATACACACATATATACATATA [CACACA_site659]”, the “gcPBM binding intensity (ln)” value turned out to be 6.97.
